Here are results for 1 molecule from patent publication US6458929 (LICENTIA, dated 2002).

This experiment addresses T1, myotilin (full length, 498 residues) (human, UniProt Q9UBF9 1-498).
T1 construct: In the yeast two-hybrid assay, full-length myotilin was expressed as a bait (EG202) or prey (JG4-5) fusion protein; In Western blots and staining it was the endogenous muscle protein; also called full-length myotilin
T1 sequence: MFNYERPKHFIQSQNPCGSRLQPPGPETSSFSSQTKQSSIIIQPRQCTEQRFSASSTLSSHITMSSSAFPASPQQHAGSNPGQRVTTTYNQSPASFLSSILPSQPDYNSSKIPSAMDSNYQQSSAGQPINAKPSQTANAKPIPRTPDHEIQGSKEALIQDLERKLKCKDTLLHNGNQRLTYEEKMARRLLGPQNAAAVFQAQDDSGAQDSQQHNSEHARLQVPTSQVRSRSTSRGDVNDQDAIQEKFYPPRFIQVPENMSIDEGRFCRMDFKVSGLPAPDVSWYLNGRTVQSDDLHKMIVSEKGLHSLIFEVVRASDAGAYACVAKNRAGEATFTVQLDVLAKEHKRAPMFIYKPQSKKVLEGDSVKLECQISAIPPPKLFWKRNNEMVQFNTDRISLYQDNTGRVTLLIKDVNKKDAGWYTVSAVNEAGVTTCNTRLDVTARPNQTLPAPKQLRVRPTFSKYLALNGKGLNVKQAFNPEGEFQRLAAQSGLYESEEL
The experiment in a line: affinity precipitation of 35S-labelled in vitro translated myotilin with GST on glutathione-Agarose. The text has this:
FIGS. 8A to 8E. Homotypic interaction of myotilin and association with α-actinin. (A) Domain structure of α-actinin and myotilin and the constructs used in yeast two-hybrid and in vitro binding assays. ABD=actin-binding domain, R=spectrin-like repeat, EF=EF-hand region. The grey box in myotilin indicates the serine-rich region and the loops indicate Ig-like domains. (B) A photomicrograph of the yeast two-hybrid interactions. On the left are the expressed bait fusion proteins and on the top are the prey fusion proteins. EG202=empty bait vector and JG4-5=prey vector. Color reaction is an indicator of an interaction. (C) Quantitation of β-galactoside values. The bait and prey fusion proteins are as in B. The β-galactosidase values are categorized as follows: −=<20; +=21–150; ++=151–300; +++=301–450. […] The NH_2-terminal and COOH-terminal parts of α-actinin were expressed as GST-fusion proteins, purified and bound to glutathione-Agarose beads. ^35S-labeled in vitro translated myotilin was allowed to bind GST-α-actinin fusion protein-containing beads. […]
For the in vitro binding assay, GST-α-actinin fusion proteins, ABD/R1/R2, R3/R4/EF [25] or GST alone were produced in E. coli and purified with glutathione-Agarose beads (Pharmacia). […] After washes with the same buffer, bound material was eluted by boiling in Laemmli buffer, subjected to SDS-PAGE and detected by autoradiography.

B1: GST alone (other)
chain: not shown
notes: Control protein on glutathione-Agarose beads; also called GST control
For B1, the binding result is recorded as “no binding”.
